The source gives no read counts; variants with many changes may rest on few reads.

The chains are these.
B1: LINE1-mini (parent)
chain: GGCAGAGCUCAACACAGCGUGGCAAAGUGGCUGUGGCUAGACUGCC

Variants of B1 are the subject of this data set. The data set can be described thus: self-cleavage, relative activity (ratio to wild type); higher = more cleavage; in vitro, sequencing; the parent is a self-cleaving ribozyme.
For the variant GGCAGAGUUCCACACAGCGUGGAAAAGUGACUGUGGCUAGACUUCC, the self-cleavage worked out at 0. The result for GGCGGAGCUCAACACAGCGUGGCAAAGUCGCUGUGGUUAGACUGCG reads 0.06. The same measure for GGCAAAGCUCAACUCAGCGAGGCAAAGUGGCUGUGGCUACACUACC: 0.05. As to GGCCGAGCUCAACACAGCCUGGCAAAGUGGCUGUGGCCCGACUGCC, the self-cleavage was 0.03. The result for GGCAGAGCUCUACACAGCGUGGCACGGAGGCUGUGGCUAGACUACC reads 0.02. GGCAGAGCUCAACAGAGCGUUGCAAAGUGGCUGUCGCUAGACUGCC: the self-cleavage was determined as 0. The result for GGCAUAGCUCAACACAGCUUGGCAAAGUGGCUGUGGCUAGACUGCG reads 0.03; that for GGCAGAGCUAAACACAGCUUGGCAAAAUGGCUCUGGCUAGACUGCC, 0.01. The same measure for GGCAGAGCCCAACACAUCGUGGCAAAGUGACUGUGGCUAGACUGGC: 0.07; for GGCAGAGCUCAACACAGCGUAUCAAAGGGGCUGUGGCUAAUCUGCC: 0.08; for GGCAGAGCUCAACACAGAGUUGCAAUGUGGCUGUGGCGAGACUGCC: 0.02. On to GGGAGAGCUCAACACAGAGUGGCAAAGUGGCUGUGGCUAGAUUGCC, for which the self-cleavage was determined as 0.13. For GGCAGAGCUCAACACAGCGUAGCAAAGUGGCUGUGGCUAGUCUGGC, the self-cleavage came out at 0.22. The same measure for GGCAGAGCGCAACACAGCGUGGCAAGGUGGCUUUGGCUAGACUGCC: 0.04.

Consider GGCAGAGCACAACACAGCGUGGCAAAGUGGCUGUGCCUAGACUCCC, for which the self-cleavage worked out at 0.01. With GGCAGUGCUCAACACUGCGUGGCAAAGUGGCUGUGGCUAGUCUGCC, the self-cleavage worked out at 0.16. Consider GGCAGAGCUCAACACAGCGUGGCAAAGUGGGUGUGGCUAUAAUGAC, for which the self-cleavage amounted to 0.01.

As to GAGAGAGCUCAACACAGCGUGGUAAAGUGGCGGUGGGUAGACUGCC, the self-cleavage came to 0.9. Regarding GGCAGAGCUCAACACACCCUGGCACAGUGGCUGUGGCUAGACUGCC, the self-cleavage came out at 0.55. The same measure for GGCAGAGCUCAACACAGCGUAUCAGAGUGACUGUGGCUAGACGGCC: 0.11; for GGCAGUUCUCAACACAGCGUGGCAAAGUGGCUUUGGCUAGACUGCC: 0.26; for GGCGGAGCUCACCACAGCGUGGCAAAGUGGCUGUGGGUAGACUGCC: 0.

As for GGCAGAGCUCAACACAGCGUUGCAAAGUGGUUGUGGCUAGACGGUU, the self-cleavage came out at 0.02. The result for GGCAGAGCUCAACACAGAGGUGCAAAGUGGCUGUGGCUAGACUGCC reads 0.16; that for GGCGGAGCUCAGCACAGCGUGGCAAAGUGGAUGUGGUUAGACUGCU, 0.03. For GGCAGAGCUCAACACAGCGUGUCAAAGUGGCUGUUGCUAGACUGCA, the self-cleavage was determined as 0.31.

For GGUGGAGCUCAACACAGCGUAGCAAAGUAGCUGUGUAUAGACUGCC, the self-cleavage came out at 0.03.

As for GGGAGAGCUCAACACAUCGUGACAAAGUGGCCGAGGCUAGACUGCC, the self-cleavage was found to be 0.11. The same measure for GGCAGAGCUAAACACAGUGUGGCAAAGUGCCUGUGGCAGGACUGCC: 0.05. As to GGCAGAGCCCAACCCAGCGUGGCUAAGUGGCUGUGGCUAUACUGCC, the self-cleavage amounted to 0.02.

With UGCAGAGCUCAACACAGCGUGGCUAAUUGGCUGUGGCUAGACUGCC, the self-cleavage is 0.32. The result for GGCAGAGCUCAACACAGCGUGGCAAAGUGCCUGGGGCUAGUCUGCC reads 0.04. Regarding GGCAGAGAUCAACCCAGCGUGGCAACGUUGCUGUAGCGAGACUGCC, the self-cleavage came to 0.01. With GGCAGAGCUCAACACAGCGCGGCAAAGUGGCUUUGGCUAGUCUGCC, the self-cleavage was 0.03. The result for GGCAGAGCUCAACACAGCGUGGCAAAGUGACGGUGGCUAGAUUGCC reads 0.03. For the variant GGCAGAGCUCAUCACAGCGUGGCAAGGUGGCUUUGGCUAGACUGCC, the self-cleavage came to 0.16. The result for GGCAGAGCUCAACAGAGCGUGGCAAAGUGCGUGUGACUAGACUGCC reads 0.01; that for GGCAGAUCUCAACGCAGCGUGGCUAAGUGUCUGUGGCUAGACUGCC, 0.21.

As for GGCAGAACUCAACACUGAGUGGCAAAAUGGUUGUGGAUAGCCUGCC, the self-cleavage turned out to be 0.01. The result for GGCAGAGCUAAACACAGCGUGGCAAAGUCGCUGUGGCUAAACUGCC reads 0.05. Regarding GUCUGAGCUCAACACAGCGUGGAAAAGUGUCUGGGGCUAGACUGCC, the self-cleavage came out at 0.02. The result for GGCAGAGCUUAACACAGCGUGGCAAAAUGGCUGCGGCUAGACUGCC reads 0.05; that for GGCUGAGCUCAACACAGUGUGGCAAAGUGGCAGUGUCUAGACUGCC, 0.04. For GGGAGAGCUCAACACAGCGUGGCAAAGUGGCUGUGGCUAGUCUGCU, the self-cleavage stood at 0.32. The result for GGCAGAGCUCAAAAUAGCGUGGCAAAGUGGCUGUGGCUAGACUGCA reads 0.05; that for GGUGGAGCUCAACACAGCGUGGCAAAGUGGCUCGGGCUAGACUUCC, 0.06; that for CGCAGAGCUCAACACAGCGUGUUAAAGUGACUGUGUCUAGACUGCC, 0.02. For the variant GGAAGAGCUCAACACAGCGUGGCAAACUGGCUGUAGCUAGACUGCC, the self-cleavage was found to be 0.31. On to GGCAGAGCUCAACACAGACUGGCCAAGUGGGUGUGGCUAGACUGAC, for which the self-cleavage came to 0.03. The result for GGCAGAGCUCAACACAGCAUGGCAAAGUGGGUGUGGCUAGACUGCA reads 0.09. The result for GGCAGACCUCCACAUAGAGUUGCAAACUGGCUGUGUCGAGGCUGCC reads 0; that for GGCAGGGCGCAACACAGCGUGGAAAAGUGUCUGUGGUUUCACAGCC, 0; that for GGAAGAGCUCCACACAGCGUGGCAAUGUGGCUGUCGAUAGACUGCC, 0.

For the variant GGCAGCGCUCAACACAGCGUGGCAAAGUGGCUGUGGCUAGUCGGCC, the self-cleavage is 0.09. The result for GGCAGAGCUCCACAUAGGGUGGCAAAGUGGCUGUGACUAGGCUCCC reads 0.01. As for UGCAGAGCUCAACACAGCGUCGCAAUGUGGCUCUGGCUAGACUGCC, the self-cleavage turned out to be 0.01. The result for GGCAGAGCUCAACACAGCUUAGCAUUGAGGCUGUGGCUAGACUGCC reads 0.13. The result for GGCAGAGCUCACCGCAGCGUGGCAAAGUGGCUGUGGGUAGACUGCC reads 0.02. As to GGCAGGGCUCAACACAGCGUGGUAAAGUGGCUUUGGCUAGACUGCC, the self-cleavage turned out to be 0.38. Regarding GGGAGCGCUCAACACCGCGUGGCAAACUGGCUGUGGCUAGACUGUC, the self-cleavage amounted to 0.02. The same measure for GGCAGAGCUCAACACAGCGUGGCAACAUGACUGUGGCUACAGUGCC: 0.03.

With GGCAGGGCGCAACACAGCGUGACAAAGUGGCUGUGGCUAGACUGCC, the self-cleavage came out at 0.06. The same measure for GGCAGAGCGCAACACAGCGUGGCAAAGUGUUUGUGGCUAGACUGCC: 0.01; for GGCAGGGCUUAACACAGCGGGGCAAAGUGGCUGUGGCUAGACUGCC: 0.02; for GGCAGAGCUCAACAUAGCGUGGCAAAGUGGCAGUGGCUACACUGCC: 0.02.

As for GGCAGAGCUCAACACAGUGUGGCAAAGUGGCCGUGGCUAGACAGCC, the self-cleavage came out at 0.03.

Regarding GGCAGACCUCAACACAGAGUGGCAAAGUGGCUGUGGCUAGACUGCG, the self-cleavage worked out at 0.06. As for GGCUGAGCUAAACACAACGUGGCAAAGUGGCUGUGGCUCGACUGCC, the self-cleavage was found to be 0.01.

For GGCAGAGCUCCGCAUAGGGUGGCACAGUGGCUGUGGCUAGACUGCC, the self-cleavage came out at 0. The result for GGCAGAUCUCAGCACAGCGUGGCAAAGUGGCUGUGGCUCGACUGCC reads 0.02; that for GGCAGAACUAAACCCAGCGUGGCAAAUUGGCUGUGGCUAGAAUGCC, 0.02. Take GGCAGAGCUCAACACAGCGGGGCAAAGUGGCUGUGGCUUGACUUCC: the self-cleavage stood at 0.03. Turning to GGCAGAGCUCAACGAAGCGUUGCAAAGUGGCUGUGGCUAGACUGCC, the self-cleavage was found to be 0.05. On to GGCAUAGCUCAAAACAGCGUGGCAAAGUGGGUGCGGCUAGACUGCC, for which the self-cleavage is 0.06.

In the case of GGCAGAGCUCAACAAAGCGUGGCAAAGUGGCUUUGGCUCGACUGCC, the self-cleavage stood at 0.16. The result for GGCACAGCUCAACACAGCGUGGCACAGGGGCUGUGGCUAUACUGCC reads 0.01; that for GGCAUAGCUCAACAUAGCGUGGCAAAGUAGCUGUCGCUAGACUGUC, 0.06.

Consider GGCCGCGCUCAACACAGCGUCGCAAAGUGACUGUGGCUAGCCUGAC, for which the self-cleavage amounted to 0.04. The same measure for GGCAUAGCUCAACACAGCGUGGCAAAGAUGCUGUGGCUAGACUGCC: 0.04; for GGCAGAGCUCCACACAGUGUGGCAAAGUGGCUGUAGCUAGACUGCC: 0.06.

Consider GGCUGAGCUCAACACAGCGUGGCGAAGUGGCUGUGGCUAGUCUGCC, for which the self-cleavage is 0.13.

As to GGCAGAGCUCAUAACAGCGUGGCAACCUGGCUGUGGCGAGACUGCC, the self-cleavage was determined as 0. Consider GGCUGAGCACAACACAGCGUGGCAAAGUUGCUGUGGCUAGACUGCC, for which the self-cleavage came to 0.17. GUCAGAGCUCAACACAGCGUGGCAAAGUGGAUCUGGCUAGUCUGCC: the self-cleavage was 0.08. The same measure for GGCAGACCUCAACACAGCGUGGCAAAGUGGCUGUGGCUAGACGGCG: 0.02.

As to CGCAGAGCUCAUCACAACGUGCCAAAGUGGCUGUGGCUAGACUGCC, the self-cleavage was 0.01. The same measure for GGCGGAACUCAGCACAGAGUGGCAAAGUGGCUGUGGCUAGACUGCA: 0.03; for GGCAGAGCUCAACACGGCGUGGCCAAGUGGCUGUGGUUAGACUGCC: 0.01; for GGCAGAGCUCAACACAGGGUGGCAAAGUGGCUGUGGCUAUACUGUC: 0.03.

On to GGCAGAGCUCAACACAGCGUGGCAAAGUGGCUUUGGCGAGAUUGCU, for which the self-cleavage stood at 0.03. Turning to GGCAGAGCUCAACACAGCGUGGCAAAGUGGCGGUAGCUAGACUACC, the self-cleavage amounted to 0.03. The same measure for GGCAGAGCUCAACACAGCGUGGCAAAGUAUCUGUUGCUAGACUGCC: 0.14. In the case of GGCAGAGCCCAACAUAGGGUGGCAAAGUGGCUGUGGCUAGACUGCC, the self-cleavage was 0.03. For GGCAGAGCUCAACACAGCGUGGCAAAGUGGAUGUGGAUAGACUGCA, the self-cleavage was 0.03. The result for GGCAGAGCUCGACACGGCAUGGCAAAGUGGCGGUGGCUAGACUGAG reads 0.02. The result for GGCAGAGCUCAACACAGCGUGGCCAAGUGGCUGUGGCCAGAAUGCC reads 0.08; that for GGCAGAGCUCAACAGAGCGUGGCAAAGUGGCUAUGGCUUGACUGCC, 0.06; that for GGCAGAGCUCAACACAGCGUGGCAAAGUAGCUGUGAAUAGACUGCU, 0.06. With GUAAAAGCUCAACAUAGCGUGGCAAAGUGGCUGUGGCUAGACUGCC, the self-cleavage worked out at 0.77. Take GCCAGCGCUCCACACAGCGUGGCAAAGUGGCUGUGGCUAGAGUGCC: the self-cleavage is 0. The same measure for GUCAGAGCUCAACACAGCCUGGCAAAGUGGCUGUGGCUAGAAUGCC: 0.01; for GGCACAGCUCAACAGAGCGUGGCAAAGUGGCGCUGGCUAGACUGCC: 0.03; for GGCAGAGCUCAACAGAGCGUGGCAAAGUGGCUGGGGCUAGACUCCC: 0.01. The result for GUCAGAGCUUAACACAGCGUGACAAAGUUGCUGUUGCUAGACUGCC reads 0. As for GGCAGAGCUCAACACAUCAUGGCAAAGUUGCUGUGGCUAGACAGCC, the self-cleavage is 0.02. The result for GGCAGAGCUCAACACAGCGUGGCAAAGUGGCUCUGGUUAGACUGCU reads 0.02.

Take GGGAGAGCUCGAUACAGCGUGGCAAAGUGGCUGUGGCUAGACUGCC: the self-cleavage was 0.03. Turning to GGCAGAGCUCAACACAGUGUGGCAAAGUGACUGUAGGUAGACUGCC, the self-cleavage stood at 0.07. As for GGCAGAGCACAACACGGCGUGGCAAAGUGGCUGUGGCUCGACUGCC, the self-cleavage stood at 0.07. The same measure for GGCAGAGAUCAACAGAGCGUGGCAAAGUGGCUGUGGCUAAACUGCC: 0.33. The same measure for GACAGAGCUCAACACGGCGUGGCAAAGUGGCUGUGGCUCGACUGCC: 0.3; for GUCAGAGCUCAAGACAGCUUGGCAAAGUGGCUGUGGCUAGACUGCC: 0.03.
